± gives the standard deviation of the averaged measurements. In all, about 33,000 sequences were measured (“E-score (dimensionless, -0.5 to 0.5)”: median about -0.049, highest 2% from about 0.37 on). Some of the results follow.
These sequences were tested on T1, PmTbr T-box DNA-binding domain (GST fusion) (assay: PBM E-score of 8-mer (E-score (dimensionless, -0.5 to 0.5)); Tbr is Tbrain of the sea star Patiria miniata (Pm) or the sea urchin Strongylocentrotus purpuratus (Sp); higher = stronger binding preference; most listed sequences are background and not binding sites). Details: the construct has about 5 more residues each side.
T1 sequence: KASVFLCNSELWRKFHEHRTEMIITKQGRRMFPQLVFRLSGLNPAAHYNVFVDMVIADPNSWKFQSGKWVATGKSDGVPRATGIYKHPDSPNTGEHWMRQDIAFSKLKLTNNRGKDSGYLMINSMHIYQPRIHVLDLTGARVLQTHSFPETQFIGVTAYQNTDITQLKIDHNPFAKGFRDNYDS
Outline: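 Each ungapped 8-mer received an enrichment E-score from the Universal PBM Analysis Suite, averaged over duplicate arrays. The proteins were Tbr T-box DNA-binding domains, covering the whole T-box plus about five flanking residues, fused to GST and expressed in BL21 E. coli at 20 °C before glutathione affinity purification. Universal Agilent oligonucleotide arrays were made double-stranded by primer extension and incubated with 200 nM protein in PBS (pH 7.5). The arrays were then scanned and quantified, and every 8-mer was scored from probe intensities.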

Row | Sequence | PBM E-score of 8-mer
1 | AGGTGTTG | 0.4891 ± 0.0019
2 | TCATTCAA | -0.266 ± 0.027
3 | GGAGTGAA | 0.226 ± 0.02
4 | GTGTCGGA | 0.394 ± 0.015
5 | ACCGCACC | 0.194 ± 0.045
6 | AACCATAA | -0.117 ± 0.042
7 | CTGAGGGA | -0.0382 ± 0.043
8 | GCAGTTTA | 0.0173 ± 0.11
9 | GTACGCAA | -0.223 ± 0.03
10 | CCCAAGTA | -0.0284 ± 0.033
11 | CCCGGCAC | 0.17 ± 0.026
12 | AATCAAGG | -0.128 ± 0.019
13 | CTAGCAGA | 0.0492 ± 0.064
14 | GGGACCTA | -0.174 ± 0.011
15 | AGAGTCTA | -0.203 ± 0.064
16 | CGCACACG | 0.132 ± 0.0096
17 | GTCAAGAA | -0.0436 ± 0.0075
18 | ATTGTGAC | 0.116 ± 0.039
19 | ATTTAAAA | -0.169 ± 0.094
20 | ATTTCTTG | -0.0691 ± 0.14
21 | AAGTCCAT | -0.145 ± 0.019
22 | GACGCAAC | 0.114 ± 0.071
23 | ATCCATCC | -0.273 ± 0.037
24 | ACAAGGTC | 0.1572 ± 0.00086
25 | CATCATGC | -0.0796 ± 0.046

Row | Sequence | PBM E-score of 8-mer
26 | AAGCGGAA | -0.0005 ± 0.025
27 | GTAAGCCA | -0.191 ± 0.041
28 | GCACTTCA | 0.271 ± 0.012
29 | CATCACCG | -0.139 ± 0.039
30 | CGGATCTC | -0.299 ± 0.013
31 | TCTGAAAA | -0.253 ± 0.057
32 | CATATAAA | -0.162 ± 0.014
33 | GAGCCACC | -0.059 ± 0.073
34 | ATGCAAAA | -0.235 ± 0.045
35 | CCTCGAAC | 0.109 ± 0.0078
36 | CTCTCGGA | -0.177 ± 0.042
37 | CATTATGC | -0.144 ± 0.0092
38 | CCCATATA | -0.238 ± 0.036
39 | GGGACACA | -0.0571 ± 0.031
40 | AGTGAAAC | 0.0272 ± 0.073
41 | CCCATCCG | -0.108 ± 0.058
42 | ATATTCTC | -0.0331 ± 0.008
43 | CATATGAC | -0.0735 ± 0.011
44 | GAGTTACA | 0.0401 ± 0.024
45 | AGTTCACG | 0.32 ± 0.02
46 | CCTGGCGC | 0.29 ± 0.056
47 | CCGAGAAG | -0.0729 ± 0.0046
48 | CCGACAAA | 0.103 ± 0.054
49 | CGCTTCGC | 0.279 ± 0.089
50 | AAGTTCAC | 0.159 ± 0.062

Row | Sequence | PBM E-score of 8-mer
51 | CAACTCCC | -0.0742 ± 0.13
52 | CGGTGAGC | -0.0638 ± 0.075
53 | ATAGTGTC | 0.335 ± 0.011
54 | AACCGAAC | -0.115 ± 0.033
55 | CCGCTCGA | -0.219 ± 0.081
56 | CGCAAGTA | 0.16 ± 0.041
57 | CCTGTCTA | -0.1 ± 0.035
58 | AATGGACA | 0.0325 ± 0.009
59 | TGTTATAA | 0.246 ± 0.034
60 | GCGGAGAA | 0.07473 ± 0.0005
61 | ATTCACGG | 0.226 ± 0.019
62 | GTTAAGAA | -0.0589 ± 0.015
63 | AGCTAGTG | 0.108 ± 0.0035
64 | CCTCGTGA | 0.128 ± 0.036
65 | CCCTGTAC | -0.039 ± 0.084
66 | AACCCAAT | -0.294 ± 0.0085
67 | CAACCCAC | 0.0796 ± 0.085
68 | AACACTTC | 0.442 ± 0.014
69 | ATCGGCAC | 0.156 ± 0.07
70 | CTATGGGC | -0.248 ± 0.1
71 | ACCACCCT | 0.0583 ± 0.021
72 | GCCCGGGA | -0.186 ± 0.1
73 | CCCCGCGC | 0.0407 ± 0.011
74 | CACGTATG | 0.164 ± 0.0059
75 | CGGAATCA | -0.101 ± 0.043

Row | Sequence | PBM E-score of 8-mer
76 | AAATGGAG | 0.0758 ± 0.079
77 | GGCCTTCA | -0.15 ± 0.021
78 | ACACGGGA | -0.00943 ± 0.0048
79 | AACCGACA | 0.153 ± 0.026
80 | CAATTTGG | -0.0299 ± 0.041
81 | CGTACCGC | 0.109 ± 0.019
82 | CTCCCACA | 0.0954 ± 0.064
83 | GCTTGTCA | 0.0851 ± 0.047
84 | AGCCTACC | -0.186 ± 0.037
85 | AATATACG | -0.0764 ± 0.031
86 | CGTGTCGA | 0.288 ± 0.052
87 | GCAATAAA | -0.111 ± 0.045
88 | CATAACTC | -0.229 ± 0.00039
89 | CAGGCAAC | -0.0628 ± 0.029
90 | AAGTCTAC | 0.00041 ± 0.015
91 | CCGCACTC | 0.09578 ± 0.00085
92 | ATAAATTC | 0.0357 ± 0.039
93 | AACAAGGT | 0.229 ± 0.016
94 | TACTCCCA | -0.217 ± 0.067
95 | CAGGCTAC | -0.199 ± 0.01
96 | CGCATATC | -0.0673 ± 0.056
97 | CTGGTCAC | 0.198 ± 0.017
98 | GCCCCAGA | -0.14 ± 0.029
99 | CCACACCC | 0.395 ± 0.028
100 | CATGATCG | -0.0386 ± 0.00089

Row | Sequence | PBM E-score of 8-mer
101 | CAAAGCCC | -0.278 ± 0.088
102 | AGGAGTTG | 0.225 ± 0.044
103 | ACGTGGAC | -0.0287 ± 0.1
104 | ACCGGACA | -0.0503 ± 0.06
105 | CGGCTAGA | -0.042 ± 0.019
106 | AAGCATAT | -0.067 ± 0.056
107 | AACCTTCA | -0.149 ± 0.083
108 | AAGATACT | -0.232 ± 0.12
109 | AATGTGGC | 0.163 ± 0.0047
110 | GCGAGCGA | 0.137 ± 0.1
111 | ACCCTCAG | 0.0121 ± 0.00031
112 | ATCGCATG | 0.0742 ± 0.0027
113 | ATAATGTG | 0.262 ± 0.032
114 | CGTATAAG | -0.073 ± 0.011
115 | ATCTGACG | 0.0815 ± 0.024
116 | AATAGATT | -0.116 ± 0.051
117 | CGATTAAG | 0.0336 ± 0.064
118 | CACCCTAG | 0.249 ± 0.037
119 | ACGACAGC | 0.122 ± 0.024
120 | CTTAGTAC | -0.239 ± 0.06
121 | AGAGGTGA | 0.352 ± 0.015
122 | ATCCAGAC | -0.137 ± 0.052
123 | GCACCAAA | 0.143 ± 0.059
124 | GAAAACAC | 0.229 ± 0.033
125 | AGTTAATC | -0.117 ± 0.071

Row | Sequence | PBM E-score of 8-mer
126 | AGTCAACG | -0.0274 ± 0.096
127 | ATGGAACG | -0.179 ± 0.018
128 | AGTTGCGG | 0.0771 ± 0.12
129 | ACAGTTAA | 0.158 ± 0.058
130 | ACGCCCTA | 0.155 ± 0.023
131 | AGCCGTGA | 0.27 ± 0.0098
132 | GTTAATCA | 0.115 ± 0.02
133 | CAACGAAA | -0.0229 ± 0.071
134 | ACGGGAGG | -0.113 ± 0.047
135 | ATTAGGAC | -0.0886 ± 0.029
136 | TCTTACAA | -0.243 ± 0.045
137 | CGGCCCTA | -0.249 ± 0.019
138 | GCACCAGC | 0.148 ± 0.004
139 | GCCGCTCA | -0.158 ± 0.064
140 | GTAAACTA | -0.131 ± 0.014
141 | GTGTTCCA | 0.126 ± 0.038
142 | CCAAGTTC | 0.0302 ± 0.015
143 | AAAACAAC | 0.0511 ± 0.084
144 | AAAATAAG | -0.136 ± 0.11
145 | ATTGCTTC | -0.198 ± 0.029
146 | CAGGTTGA | 0.00316 ± 0.039
147 | CCTCCATC | -0.0398 ± 0.06
148 | CACATAGG | 0.208 ± 0.011
149 | GCGCCTCA | 0.343 ± 0.036
150 | CGAACGCA | -0.05 ± 0.079

Row | Sequence | PBM E-score of 8-mer
151 | AACCGGCA | 0.124 ± 0.017
152 | ATCGCGGC | 0.159 ± 0.024
153 | CCATGCAG | -0.0489 ± 0.084
154 | ACATTTCT | 0.114 ± 0.018
155 | AGGGCAAC | -0.0859 ± 0.086
156 | CACTCAAG | 0.183 ± 0.024
157 | CCCTTAAA | -0.0507 ± 0.076
158 | CCCATATC | -0.113 ± 0.04
159 | ATTTCCAG | -0.149 ± 0.11
160 | GCTTCTAA | -0.158 ± 0.025
161 | CGCAACAA | 0.104 ± 0.036
162 | ATCTTAAT | -0.171 ± 0.13
163 | CTGGTTAC | -0.0261 ± 0.04
164 | CAAGCGAA | -0.0138 ± 0.02
165 | ATTTGGGG | -0.276 ± 0.011
166 | TCGGCCCA | -0.174 ± 0.035
167 | GGCTCGGA | -0.238 ± 0.014
168 | CAAAGTTA | 0.0481 ± 0.042
169 | CCTTAGTC | -0.142 ± 0.043
170 | GAGGCGAC | 0.28 ± 0.012
171 | AGCAACTA | 0.144 ± 0.046
172 | GGTAGGGA | -0.194 ± 0.048
